Here are results for twelve molecules from patent publication US20230250147A1, “GLP-1R AGONISTIC PEPTIDES WITH REDUCED ACTIVITY” (SANOFI, priority 2020, published 2023).

The labels stand for the following.
B1: 209 (protein)
chain: GHGEGTFTSDKSKQLEEEAVRLFIEWLKAGGPKKIRYSGGGGGGGSGGGGSGGGGSA[… human IgG4 Fc with changes …]GGGSGSAHPIPDSSPLLQFGGQVRQRYLYTDDACQTEAHLEIREDGTVGGAADQSPESLLQLKALKPGVIQILGVKTSRFLCQRPDGALYGSLHFDPEACSFRELLLEDGYNVYQSEAHGLPLHLCGNKSPHRDPAPRGPARFLPLPGLPPAPPEPPGILAPQPPDVGSSDPLSMVGSQGRSPSYAS
modifications: Fusion Protein
B2: 211 (protein)
chain: GHGEGTFTSDLSKQLEEEAVRLFIEWLKAGGPKKIRYSGGGGGGGSGGGGSGGGGSA[… human IgG4 Fc with changes …]GGGSGSAHPIPDSSPLLQFGGQVRQRYLYTDDACQTEAHLEIREDGTVGGAADQSPESLLQLKALKPGVIQILGVKTSRFLCQRPDGALYGSLHFDPEACSFRELLLEDGYNVYQSEAHGLPLHLPGCKSPHRDPAPRGPARFLPLPGLPPAPPEPPGILAPQPPDVGSSDPLSMVGSQGRSPSYAS
modifications: Fusion Protein
B3: 212 (protein)
chain: GHGEGTFTSDLSKQLEEEAVQLFIEWLKAGGPKKIRYSGGGGGGGSGGGGSGGGGSA[… human IgG4 Fc with changes …]GGGSGSAHPIPDSSPLLQFGGQVRQRYLYTDDACQTEAHLEIREDGTVGGAADQSPESLLQLKALKPGVIQILGVKTSRFLCQRPDGALYGSLHFDPEACSFRELLLEDGYNVYQSEAHGLPLHLPGCKSPHRDPAPRGPARFLPLPGLPPAPPEPPGILAPQPPDVGSSDPLSMVGSQGRSPSYAS
modifications: Fusion Protein
B4: 208 (protein)
chain: GHGEGTFTSDKSKQLEEEAVRLFIEWLKAGGPKKIRYSGGGGGGGSGGGGSGGGGSA[… human IgG4 Fc with changes …]GGGSGSAHPIPDSSPLLQFGGQVRQRYLYTDDACQTEAHLEIREDGTVGGAADQSPESLLQLKALKPGVIQILGVKTSRFLCQRPDGALYGSLHFDPEACSFRELLLEDGYNVYQSEAHGLPLHLCGNKSPHRDPAPRGPARFLPLPGLPPAPPEPPGILAPQPPDVGSSDPLSMVYPSQGRSPSYAS
modifications: Fusion Protein
B5: 164 (protein)
chain: HSEGTFTSDKSKQLAKRLVRLFIEWLIKGGHSSGKPPPKGGGGGGGSGGGGSGGGGSA[… human IgG4 Fc with changes …]GGGSGSAHPIPDSSPLLQFGGQVRQRYLYTDDACQTEAHLEIREDGTVGGAADQSPESLLQLKALKPGVIQILGVKTSRFLCQRPDGALYGSLHFDPEACSFRELLLEDGYNVYQSEAHGLPLHLPGCKSPHRDPAPRGPARFLPLPGLPPAPPEPPGILAPQPPDVGSSDPLSMVGSQGRSPSYAS
modifications: Fusion Protein
B6: 195 (protein)
chain: HGEGTFTSDLSKQLEKELVRLFYEWLINGGHSKGKPPPKGGGGGGGSGGGGSGGGGSA[… human IgG4 Fc with changes …]GGGSGSAHPIPDSSPLLQFGGQVRQRYLYTDDACQTEAHLEIREDGTVGGAADQSPESLLQLKALKPGVIQILGVKTSRFLCQRPDGALYGSLHFDPEACSFRELLLEDGYNVYQSEAHGLPLHLPGCKSPHRDPAPRGPARFLPLPGLPPAPPEPPGILAPQPPDVGSSDPLSMVGSQGRSPSYAS
modifications: Fusion Protein
B7: 204 (protein)
chain: HGEGTFTSDLSKQLEKELVRLFYEWLIKGGHSKGKPPPKGGGGGGGSGGGGSGGGGSA[… human IgG4 Fc with changes …]GGGSGSAHPIPDSSPLLQFGGQVRQRYLYTDDACQTEAHLEIREDGTVGGAADQSPESLLQLKALKPGVIQILGVKTSRFLCQRPDGALYGSLHFDPEACSFRELLLEDGYNVYQSEAHGLPLHLPGCKSPHRDPAPRGPARFLPLPGLPPAPPEPPGILAPQPPDVGSSDPLSMVGSQGRSPSYAS
modifications: Fusion Protein
B8: 202 (protein)
chain: HGEGTFTSDLSKQLEKELVRLFYEWLIKGGHSSIKPPPKGGGGGGGSGGGGSGGGGSA[… human IgG4 Fc with changes …]GGGSGSAHPIPDSSPLLQFGGQVRQRYLYTDDACQTEAHLEIREDGTVGGAADQSPESLLQLKALKPGVIQILGVKTSRFLCQRPDGALYGSLHFDPEACSFRELLLEDGYNVYQSEAHGLPLHLPGCKSPHRDPAPRGPARFLPLPGLPPAPPEPPGILAPQPPDVGSSDPLSMVGSQGRSPSYAS
modifications: Fusion Protein
B9: 206 (protein)
chain: HGEGTFTSDLSKQLEKRLVRLFYEWLLNGGHSSQKPPPKGGGGGGGSGGGGSGGGGSA[… human IgG4 Fc with changes …]GGGSGSAHPIPDSSPLLQFGGQVRQRYLYTDDACQTEAHLEIREDGTVGGAADQSPESLLQLKALKPGVIQILGVKTSRFLCQRPDGALYGSLHFDPEACSFRELLLEDGYNVYQSEAHGLPLHLPGCKSPHRDPAPRGPARFLPLPGLPPAPPEPPGILAPQPPDVGSSDPLSMVGSQGRSPSYAS
modifications: Fusion Protein
B10: 196 (protein)
chain: HGEGTFTSDLSKQLEKELVRLFYEWLINGGPSSGKPPPKGGGGGGGSGGGGSGGGGSA[… human IgG4 Fc with changes …]GGGSGSAHPIPDSSPLLQFGGQVRQRYLYTDDACQTEAHLEIREDGTVGGAADQSPESLLQLKALKPGVIQILGVKTSRFLCQRPDGALYGSLHFDPEACSFRELLLEDGYNVYQSEAHGLPLHLPGCKSPHRDPAPRGPARFLPLPGLPPAPPEPPGILAPQPPDVGSSDPLSMVGSQGRSPSYAS
modifications: Fusion Protein
B11: 190 (protein)
chain: HGEGTFTSDKSKQLEKELVRLFYEWLKAGGHSKQKPPPKGGGGGGGSGGGGSGGGGSA[… human IgG4 Fc with changes …]GGGSGSAHPIPDSSPLLQFGGQVRQRYLYTDDACQTEAHLEIREDGTVGGAADQSPESLLQLKALKPGVIQILGVKTSRFLCQRPDGALYGSLHFDPEACSFRELLLEDGYNVYQSEAHGLPLHLPGCKSPHRDPAPRGPARFLPLPGLPPAPPEPPGILAPQPPDVGSSDPLSMVGSQGRSPSYAS
modifications: Fusion Protein
B12: 200 (protein)
chain: HGEGTFTSDLSKQLEKELVRLFYEWLIKGGHSSGRPPPKGGGGGGGSGGGGSGGGGSA[… human IgG4 Fc with changes …]GGGSGSAHPIPDSSPLLQFGGQVRQRYLYTDDACQTEAHLEIREDGTVGGAADQSPESLLQLKALKPGVIQILGVKTSRFLCQRPDGALYGSLHFDPEACSFRELLLEDGYNVYQSEAHGLPLHLPGCKSPHRDPAPRGPARFLPLPGLPPAPPEPPGILAPQPPDVGSSDPLSMVGSQGRSPSYAS
modifications: Fusion Protein

One assay deals with T1, Monkey GLP-1R (Macaca fascicularis, UniProt F8V479).
T1 construct: expressed in transfected cells; host or cells: HEK-293
T1 sequence (F8V479 24-463): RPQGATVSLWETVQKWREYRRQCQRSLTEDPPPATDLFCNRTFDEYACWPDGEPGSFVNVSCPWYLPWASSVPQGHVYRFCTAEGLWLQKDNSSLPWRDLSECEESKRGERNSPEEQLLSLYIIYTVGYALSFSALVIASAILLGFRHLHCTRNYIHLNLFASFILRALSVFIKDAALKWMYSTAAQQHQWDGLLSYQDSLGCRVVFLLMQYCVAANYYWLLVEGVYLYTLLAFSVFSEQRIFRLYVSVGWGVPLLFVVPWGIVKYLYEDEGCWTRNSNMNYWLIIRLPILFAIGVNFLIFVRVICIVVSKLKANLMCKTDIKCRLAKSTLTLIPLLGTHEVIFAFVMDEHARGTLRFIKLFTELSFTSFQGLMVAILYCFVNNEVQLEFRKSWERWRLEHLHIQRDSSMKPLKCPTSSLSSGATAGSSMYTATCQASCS
Kind of assay: HTRF cAMP assay in HEK-293 cells, monkey GLP-1R. It counts as cell-based. As to the method: (§1) Recombinant HEK-293 cells were grown in T175 culture flasks placed at 37° C. to near confluence in medium (DMEM with 10% FBS) and collected in 2 mL vials in cell culture medium containing 10% DMSO in concentrations of 1-5×10^7 cells/mL. Each vial contained 1.8 mL cell suspension. The vials were slowly frozen to −80° C. in an isopropanol chamber, and then transferred to liquid nitrogen for long term storage.
(§2) Prior to their use, frozen cells were thawed quickly at 37° C., washed with 20 mL cell buffer (1×HBSS; 20 mM HEPES, 0.1% BSA) and centrifuged for 5 minutes at 900 rpm. Cells were resuspended in assay buffer (cell buffer plus 2 mM IBMX) and adjusted to a cell density of 1×10^6 cells/mL. For measurement, 5 μL cell suspension (final 5×10^3 cells/well) and 5 μL of test compound were added to a well of a 384-well plate, followed by incubation for 30 minutes at room temperature. […] The cAMP content of cells was determined using a kit from Cisbio Corp. (cat. no. 62AM4PEC) based on Homogenous Time Resolved Fluorescence (HTRF).
For the molecule B1, the response was half-maximal at 0.232 nM (EC50).

B2 registered an EC50 of 0.0685 nM.

Molecule B3 had an EC50 of 0.153 nM.

B4 returned a half-maximal effective concentration (EC50) of 0.255 nM.

For B5, a half-maximal effect (EC50) was put at 0.141 nM.

On to B6, for which the EC50 was 0.0718 nM.

On to B7, for which the EC50 is 0.0935 nM.

B8 came in with an EC50 of 0.128 nM.

The molecule B9 showed an EC50 of 0.151 nM.

The molecule B10 registered an EC50 of 0.127 nM.

For the molecule B11, the EC50 amounted to 0.239 nM.

For the molecule B12, the EC50 turned out to be 0.111 nM.

The target of a further assay is T2, Human GLP-1R (Homo sapiens, UniProt P43220).
T2 construct: expressed in transfected cells; host or cells: HEK-293
T2 sequence (P43220 24-463): as the sequence (F8V479 24-463) above, with N112S, S120F, G202S, V205L, F237L, R241W, V249I counted along it
In words: HTRF cAMP assay in HEK-293 cells, human GLP-1R. Type of assay: cell-based.
In turn, B1 gave an EC50 of 0.164 nM.

Regarding B2, the 50% effective concentration (EC50) was 0.0588 nM.

The molecule B3 came in with an EC50 of 0.113 nM.

The molecule B4 gave an EC50 of 0.17 nM.

The molecule B5 had an EC50 of 0.103 nM.

Molecule B6 yielded an EC50 of 0.0745 nM.

B7 returned an EC50 of 0.103 nM.

Molecule B8 yielded an EC50 of 0.101 nM.

The molecule B9 displayed an EC50 of 0.107 nM.

Molecule B10 displayed a half-maximal effective concentration (EC50) of 0.0753 nM.

B11 came in with an EC50 of 0.152 nM.

Take B12: a half-maximal effect (EC50) was put at 0.0731 nM.

For another assay, the target named is T3, Mouse GLP-1R (Mus musculus, UniProt O35659).
T3 construct: expressed in transfected cells; host or cells: HEK-293
T3 sequence (O35659 22-463): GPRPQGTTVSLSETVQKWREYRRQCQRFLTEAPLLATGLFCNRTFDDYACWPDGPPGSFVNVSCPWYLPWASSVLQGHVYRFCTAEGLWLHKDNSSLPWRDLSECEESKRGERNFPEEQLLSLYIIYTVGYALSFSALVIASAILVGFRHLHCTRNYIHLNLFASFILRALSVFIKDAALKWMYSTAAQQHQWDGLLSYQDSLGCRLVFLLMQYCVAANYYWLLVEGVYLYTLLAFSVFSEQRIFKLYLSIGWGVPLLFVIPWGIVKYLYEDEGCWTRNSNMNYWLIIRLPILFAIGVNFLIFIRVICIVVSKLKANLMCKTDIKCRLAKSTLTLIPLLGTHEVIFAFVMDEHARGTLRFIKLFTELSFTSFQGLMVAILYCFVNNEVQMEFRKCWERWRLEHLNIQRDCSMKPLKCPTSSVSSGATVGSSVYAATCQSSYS
In words: HTRF cAMP assay in HEK-293 cells, mouse GLP-1R. It counts as cell-based. Here is the method: as §1, §2
In turn, B1 had an EC50 of 0.118 nM.

In turn, B2 came in with an EC50 of 0.152 nM.

B3 showed an EC50 of 0.287 nM.

Molecule B4 displayed an EC50 of 0.128 nM.

With B5, the EC50 was 0.088 nM.

Molecule B6 gave a concentration giving a half-maximal response (EC50) of 0.0566 nM.

On to B7, for which the response was half-maximal at 0.0657 nM (EC50).

Consider B8, for which the concentration for a half-maximal effect (EC50) worked out at 0.0717 nM.

Molecule B9 came in with an EC50 of 0.0937 nM.

For B10, the EC50 was 0.0317 nM.

The molecule B11 registered an EC50 of 0.479 nM.

Consider B12, for which a half-maximal effect (EC50) was put at 0.0462 nM.
